# Results as given in PubChem BioAssay AID743279 (National Center for Advancing Translational Sciences (NCATS), 2014).
# The campaign covered roughly 360,000 compounds. About 17,000 (4.7%) were called active. Inconclusive means that the source gave no clear call. Such entries were picked first, then a sample of the others. No stated cut-off is given here; in the data, active means activity change below about -50%; inconclusive means mostly about -30% to -49%; inactive means weaker than that.
# Experiment: qHTS for Inhibitors of Inflammasome Signaling: IL-1-beta AlphaLISA Primary Screen
# Details: THP-1 LPS/ATP IL-1B secretion, 16 h; at 57.5 µM, stronger effect = lower value
# In short: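 Secreted IL-1B measured by AlphaLISA bead assay after 16 h compound exposure of THP-1 cells; compounds (final up to 57.5 uM) added 1 h before LPS (250 ng/mL) and ATP (1.25 mM) stimulation; lower signal means less secretion.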
# On the % scale 0 is the no-effect control and ±100 the full control effect.
row,SMILES,activity change
1,CCOC(=O)N1CCC(NS(=O)(=O)c2ccc3c(c2)OCC(=O)N3)CC1,inactive: 2.97%
2,CCCC(c1nnnn1Cc1cccs1)N1CCN(c2ccc(OC)cc2)CC1 (stereo unspecified),inconclusive: -33.2%
3,CCOC(=O)c1c(NC(=O)Cc2ccccc2)sc2c1CCN(C)C2,inconclusive: -31.1%
4,COc1ccc(N2C(=O)CCC(C(=O)NCCN3CCOCC3)C2c2ccc(OC)c(OC)c2)cc1 (stereo unspecified),inactive: -9.33%
5,Cc1ccc2cc(CN(CC3CCCO3)C(=S)Nc3ccccc3)c(=O)[nH]c2c1 (stereo unspecified),inconclusive: -35.9%
6,N#CCCn1cc(C(N)=O)c(-c2ccc3ccccc3c2)n1,inactive: -19.6%
7,COc1ccc(C2=Nc3ccccc3C2(O)CCN2C(=O)c3ccccc3C2=O)cc1 (stereo unspecified),inactive: 20.6%
8,NC(=O)c1sc2nc(-c3cccnc3)ccc2c1N,active: -66.7%
9,COc1cccc(NC(=O)CN(c2cccc(C(F)(F)F)c2)S(C)(=O)=O)c1,inconclusive: -31%
10,CCCCCCCCN1C(=O)[C@H](CC(=O)N2CCCCC2)C[C@@]2(C(=O)OC)CCCCC=C12,inconclusive: -49.4%
11,O=C(Nc1cccc([N+](=O)[O-])c1)Nc1ccc2c(c1)CCC2,inconclusive: -47.3%
12,COc1ccc(C(CNC(=O)c2ccc(Cl)c(S(=O)(=O)N3CCCC3)c2)N2CCCC2)cc1 (stereo unspecified),inconclusive: -39.4%
13,O=C(OCn1nnc2ccccc2c1=O)c1cccnc1Cl,inactive: -1.63%
14,CCc1c(C#N)c(SCc2c(C)noc2C)nc2c1C(=O)CC(C)(C)C2,inactive: 9.19%
15,COc1ccc2nc(SCC(=O)N3CCNC3=O)[nH]c2c1,inactive: 3.26%
16,Nc1ccc(-c2nnnn2-c2ccc(N)cc2)cc1,inconclusive: -34.2%
17,Cc1cc(N2CCOCC2)cc(C)[n+]1[O-],inconclusive: -32.6%
18,Cc1cc(/N=C/C=C2/N(C)c3ccccc3C2(C)C)n(CCC#N)n1,inconclusive: -37.1%
19,O=C1CCN(CC2CCCCC2)C=C1C(=O)c1ccccc1,inconclusive: -30.8%

row,SMILES,activity change
1,COc1ccc(CC(=O)Nc2nc(-c3ccncc3)cs2)cc1,inactive: -15.7%
2,CC1CC(C)CN(CCCNC(=O)CN2C(=O)CSc3ccc(S(=O)(=O)N4CCCCC4)cc32)C1 (stereo unspecified),active: -60%
3,COc1cc2c(cc1NC(=O)c1cc(-c3cccnc3)nc3ccc(C)cc13)oc1ccccc12,inconclusive: -41.8%
4,O=C(COc1ccc(Br)cc1Cl)N1CCN(c2ncccn2)CC1,inconclusive: -35%
5,COc1cccc(OCc2cc(C(=O)N3CCN(C)C(c4ccccc4)C3)no2)c1 (stereo unspecified),inactive: 19.5%
6,O=C(OCC(=O)N1CCN(C(=O)c2ccco2)CC1)c1cc(-c2cccc(Br)c2)nc2ccccc12,active: -67.2%
7,O=C(Nc1cc(Cl)cc(Cl)c1)C1CC(=O)N(C2CCCC2)C1 (stereo unspecified),inconclusive: -49.8%
8,Cn1c(SCC(O)c2ccccc2)nnc1-c1ccc2ccccc2c1 (stereo unspecified),inconclusive: -39.1%
9,COc1ccccc1NC(=O)N1CCN(c2cc(-c3ccccc3)nc3ncnn23)CC1,inconclusive: -36.6%
10,CC1CCN(Cc2nc3c(c(=O)n(C)c(=O)n3C)n2CCCc2ccccc2)CC1,inactive: -6.23%
11,COc1ccc(/C=C/C(=O)c2ccc3c(c2)OCO3)c(OC)c1,inconclusive: -49.1%
12,O=C1Nc2ccccc2Cc2ccccc21,inconclusive: -49.3%
13,COc1ccc(-c2sc(Nc3ccccc3)n[n+]2-c2ccc(F)cc2)cc1Br,inconclusive: -34%
14,O=S(=O)(c1ccc(Nc2ccc(-c3ccc4c(c3)OCCO4)nn2)cc1)N1CCCC1,inactive: 0%
15,COc1ccc(C2CC(c3ccc(Br)cc3)=NN2C(=O)c2cccnc2)cc1 (stereo unspecified),inconclusive: -38.4%
16,O=C(COc1nc2ccccc2nc1N1CCOCC1)Nc1cccc(S(=O)(=O)N2CCCCC2)c1,inconclusive: -38.9%
17,Cc1ccc(CNS(=O)(=O)c2ccc(-n3cnnn3)c(C)c2)cc1,inactive: 2.24%
18,CCOc1cc(CNCCO)cc(Br)c1OCc1ccccc1Cl,inconclusive: -48%
19,Cc1cc(C)c2c3c(sc2n1)C(=O)N(Cc1ccccc1)CC(=O)N3,inconclusive: -36.2%

row,SMILES,activity change
1,COc1ccc(/C=C/C(=O)c2ccc3c4c(cccc24)CC3)cc1,active: -78.3%
2,O=S(=O)(c1ccccc1)N1CCN(c2ncccn2)CC1,inactive: 0%
3,C(=N\Nc1nc(-c2ccccc2)cs1)/c1cccs1,inconclusive: -30.2%
4,Cc1cc(Oc2ccccc2)nc(-c2ccccc2O)n1,inactive: 7.58%
5,CCOC(=O)C1(C)CCCN(C(=O)c2cccc(OC(F)(F)F)c2)C1 (stereo unspecified),inactive: -6.39%
6,COc1ccc(OC)c(CCNC(=O)Cn2nc(C)c3c(C)n(-c4ccc(C)cc4)nc3c2=O)c1,active: -67.2%
7,CCN(CC)CCOc1nc(C)nc2c1oc1ccccc12,inconclusive: -35.1%
8,O=C(Nc1cc(Cl)ccc1Cl)C1CC(=O)N(c2ccc(Br)cc2)C1 (stereo unspecified),inactive: -23.6%
9,CN(CC(=O)Nc1ccc(Cl)cc1)C(=O)c1ccc(S(=O)(=O)Nc2ccccc2)cc1,inconclusive: -45.9%
10,CCCNC(=O)COC(=O)/C=C/c1cccc(F)c1,inactive: -0.273%
11,COc1ccc(-c2oc3c(c2C#CC2(O)CCCCC2)C(OC)CCC3)cc1 (stereo unspecified),inconclusive: -43.4%
12,Cc1ccc(S(=O)(=O)NNC(=O)C2CCN(S(=O)(=O)c3ccc(C)cc3)CC2)cc1,inconclusive: -34.7%
13,COc1ccc(CNC(=O)Nc2nc(C(N)Cc3ccc(C(F)(F)F)cc3)cs2)cc1 (stereo unspecified),inconclusive: -39.3%
14,COc1cc(C(=O)Nc2ccc(S(=O)(=O)N3CCCCC3C)cc2)cc(OC)c1OC (stereo unspecified),inconclusive: -46.9%
15,O=C(Nc1ccccc1)C1=C[C@H](c2csc3ccccc23)C[C@H](OCc2ccc(CO)cc2)O1,inconclusive: -37.3%
16,Oc1ccc(Cl)cc1N=Nc1ccccc1,inactive: 8.76%
17,COc1cc(Cl)c(C)cc1NC(=O)c1ccccc1NC(=O)CN1CCN(c2ccccn2)CC1,active: -66.3%
18,COc1ccc(-c2ccc(C(=O)NCCN3CCOCC3)c3occc23)c(C)c1,inconclusive: -44.8%
